Here are results for one molecule from patent publication US20260274921A1 (published 2026).

In general, EC50 refers to the midpoint of the concentration-response curve.

The target in this experiment is His-tagged CD47 extracellular domain (ECD) protein (Abclonal, CAT #RP01306) (human, UniProt Q08722 fragment). Nature of the experiment: ELISA; pH 6.0. (In general: An ELISA detects its analyte on a solid surface through an enzyme-linked reagent.)
Sequence of UniProt Q08722 (Q08722 19-139): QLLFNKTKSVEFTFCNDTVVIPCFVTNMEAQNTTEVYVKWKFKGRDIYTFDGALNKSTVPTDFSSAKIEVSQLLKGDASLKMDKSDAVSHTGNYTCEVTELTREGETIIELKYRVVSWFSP

B1: SIN-310, SIRPαV1 K53H IgV-IgG1 Fc (Fc fusion)
chain: EEELQVIQPDKSVLVAAGETATLRCTATSLIPVGPIQWFRGAGPGRELIYNQHEGHFPRVTTVSDLTKRNNMDFSIRIGNITPADAGTYYCVKFRKGSPDDVEFKSGAGTELSVRAKPS[human IgG1 Fc not printed]
On to B1, for which a half-maximal response (EC50) required 2.28 nM.
